± gives the standard deviation of the averaged measurements. Laboratory Escherichia coli strains with one amino-acid change in an essential protein, pooled on minimal glucose agar with carbenicillin or gentamicin at twice the control MIC (plus kanamycin and chloramphenicol for the plasmids), 48 h. Fold change of barcode share against drug-free plates; higher = less susceptible. Active = above 20 in both replicates (the paper's putatively resistant). '<' = one read or none on drug, '>' = one read or none on a drug-free plate. Shares are relative, so most strains fall below 1 when a few take over. Listed are strains with at least 15 reads on both drug-free plates, and hits; most hits rest on fewer reference reads. Replicate rank correlation about 0.5. Edits are read from barcodes.
B1: cdsA L20P (protein)
chain: MLKYRLISAFVLIPVVIAAPFLLPPVGFAIVTLVVCMLAAWEWGQLSGFTTRSQRVWLAVLCGLLLALMLFLLPEYHRNIHQPLVEISLWASLGWWIVALLLVLFYPGSAAIWRNSKTLRLIFGVLTIVPFFWGMLALRAWHYDENHYSGAIWLLYVMILVWGADSGAYMFGKLFGKHKLAPKVSPGKTWQGFIGGLATAAVISWGYGMWANLDVAPVTLLICSIVAALASVLGDLTESMFKREAGIKDSGHLIPGHGGILDRIDSLTAAVPVFACLLLLVFRTL
B2: cdsA I122A (protein)
chain: MLKYRLISAFVLIPVVIAALFLLPPVGFAIVTLVVCMLAAWEWGQLSGFTTRSQRVWLAVLCGLLLALMLFLLPEYHRNIHQPLVEISLWASLGWWIVALLLVLFYPGSAAIWRNSKTLRLAFGVLTIVPFFWGMLALRAWHYDENHYSGAIWLLYVMILVWGADSGAYMFGKLFGKHKLAPKVSPGKTWQGFIGGLATAAVISWGYGMWANLDVAPVTLLICSIVAALASVLGDLTESMFKREAGIKDSGHLIPGHGGILDRIDSLTAAVPVFACLLLLVFRTL
B3: cdsA I122W (protein)
chain: MLKYRLISAFVLIPVVIAALFLLPPVGFAIVTLVVCMLAAWEWGQLSGFTTRSQRVWLAVLCGLLLALMLFLLPEYHRNIHQPLVEISLWASLGWWIVALLLVLFYPGSAAIWRNSKTLRLWFGVLTIVPFFWGMLALRAWHYDENHYSGAIWLLYVMILVWGADSGAYMFGKLFGKHKLAPKVSPGKTWQGFIGGLATAAVISWGYGMWANLDVAPVTLLICSIVAALASVLGDLTESMFKREAGIKDSGHLIPGHGGILDRIDSLTAAVPVFACLLLLVFRTL
B4: cdsA I122Q (protein)
chain: MLKYRLISAFVLIPVVIAALFLLPPVGFAIVTLVVCMLAAWEWGQLSGFTTRSQRVWLAVLCGLLLALMLFLLPEYHRNIHQPLVEISLWASLGWWIVALLLVLFYPGSAAIWRNSKTLRLQFGVLTIVPFFWGMLALRAWHYDENHYSGAIWLLYVMILVWGADSGAYMFGKLFGKHKLAPKVSPGKTWQGFIGGLATAAVISWGYGMWANLDVAPVTLLICSIVAALASVLGDLTESMFKREAGIKDSGHLIPGHGGILDRIDSLTAAVPVFACLLLLVFRTL
B5: cdsA I122D (protein)
chain: MLKYRLISAFVLIPVVIAALFLLPPVGFAIVTLVVCMLAAWEWGQLSGFTTRSQRVWLAVLCGLLLALMLFLLPEYHRNIHQPLVEISLWASLGWWIVALLLVLFYPGSAAIWRNSKTLRLDFGVLTIVPFFWGMLALRAWHYDENHYSGAIWLLYVMILVWGADSGAYMFGKLFGKHKLAPKVSPGKTWQGFIGGLATAAVISWGYGMWANLDVAPVTLLICSIVAALASVLGDLTESMFKREAGIKDSGHLIPGHGGILDRIDSLTAAVPVFACLLLLVFRTL
B6: cdsA I122P (protein)
chain: MLKYRLISAFVLIPVVIAALFLLPPVGFAIVTLVVCMLAAWEWGQLSGFTTRSQRVWLAVLCGLLLALMLFLLPEYHRNIHQPLVEISLWASLGWWIVALLLVLFYPGSAAIWRNSKTLRLPFGVLTIVPFFWGMLALRAWHYDENHYSGAIWLLYVMILVWGADSGAYMFGKLFGKHKLAPKVSPGKTWQGFIGGLATAAVISWGYGMWANLDVAPVTLLICSIVAALASVLGDLTESMFKREAGIKDSGHLIPGHGGILDRIDSLTAAVPVFACLLLLVFRTL
B7: cdsA V125W (protein)
chain: MLKYRLISAFVLIPVVIAALFLLPPVGFAIVTLVVCMLAAWEWGQLSGFTTRSQRVWLAVLCGLLLALMLFLLPEYHRNIHQPLVEISLWASLGWWIVALLLVLFYPGSAAIWRNSKTLRLIFGWLTIVPFFWGMLALRAWHYDENHYSGAIWLLYVMILVWGADSGAYMFGKLFGKHKLAPKVSPGKTWQGFIGGLATAAVISWGYGMWANLDVAPVTLLICSIVAALASVLGDLTESMFKREAGIKDSGHLIPGHGGILDRIDSLTAAVPVFACLLLLVFRTL
B8: cdsA L126A (protein)
chain: MLKYRLISAFVLIPVVIAALFLLPPVGFAIVTLVVCMLAAWEWGQLSGFTTRSQRVWLAVLCGLLLALMLFLLPEYHRNIHQPLVEISLWASLGWWIVALLLVLFYPGSAAIWRNSKTLRLIFGVATIVPFFWGMLALRAWHYDENHYSGAIWLLYVMILVWGADSGAYMFGKLFGKHKLAPKVSPGKTWQGFIGGLATAAVISWGYGMWANLDVAPVTLLICSIVAALASVLGDLTESMFKREAGIKDSGHLIPGHGGILDRIDSLTAAVPVFACLLLLVFRTL

These proteins were tested against Escherichia coli (laboratory strain) (assay: barcode share on antibiotic plates over drug-free plates; higher = less susceptible). Details: antibiotic: carbenicillin; 2× MIC (3.1 µg/mL).
Method: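 A pool of E. coli strains, each edited to carry one amino-acid change in an essential protein, was grown for 48 h on minimal glucose agar with or without antibiotic; strain barcodes were sequenced; mean of two replicates.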
For B1, the “fold change of barcode share” value was 0.266 ± 0.052.
In the case of B2, the “fold change of barcode share” value is reported as 0.218 ± 0.036.
With B3 the “fold change of barcode share” value was 0.371 ± 0.13.
In the case of B4, the “fold change of barcode share” value is reported as 0.264 ± 0.15.
In the case of B5, the “fold change of barcode share” value is reported as 0.218 ± 0.22.
With B6 the “fold change of barcode share” value was 0.366 ± 0.14.
In the case of B7, the “fold change of barcode share” value is reported as 0.334 ± 0.28.
With B8 the “fold change of barcode share” value was 0.201 ± 0.0084.

Same assay, conditions: antibiotic: gentamicin; 2× MIC (MIC 0.45 µg/mL)
For B1, the “fold change of barcode share” value was 0.251 ± 0.35.
B2 was tested, and the “fold change of barcode share” value was under 0.00784.
With B3 the “fold change of barcode share” value was 0.0151 ± 0.0067.
In the case of B4, the “fold change of barcode share” value is reported as under 0.00887.
For B5, the “fold change of barcode share” value was under 0.0171.
With B6 the “fold change of barcode share” value was 0.0152 ± 0.0086.
With B7 the “fold change of barcode share” value was under 0.0219.
In the case of B8, the “fold change of barcode share” value is reported as under 0.0206.

— the supplement of paper PMC11876631
